Structures are written as SMILES. In all, about 310,000 compounds went through this assay and about 14,000 (4.5%) showed an effect of 50% or more. Effects have a minus sign here. This is one part of the list.
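Note: peak tail current of the secondary pulse compared with the same well before compound.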

Sequence of human ether-à-go-go-related gene (hERG) potassium channel (Q12809 whole entry, looked up): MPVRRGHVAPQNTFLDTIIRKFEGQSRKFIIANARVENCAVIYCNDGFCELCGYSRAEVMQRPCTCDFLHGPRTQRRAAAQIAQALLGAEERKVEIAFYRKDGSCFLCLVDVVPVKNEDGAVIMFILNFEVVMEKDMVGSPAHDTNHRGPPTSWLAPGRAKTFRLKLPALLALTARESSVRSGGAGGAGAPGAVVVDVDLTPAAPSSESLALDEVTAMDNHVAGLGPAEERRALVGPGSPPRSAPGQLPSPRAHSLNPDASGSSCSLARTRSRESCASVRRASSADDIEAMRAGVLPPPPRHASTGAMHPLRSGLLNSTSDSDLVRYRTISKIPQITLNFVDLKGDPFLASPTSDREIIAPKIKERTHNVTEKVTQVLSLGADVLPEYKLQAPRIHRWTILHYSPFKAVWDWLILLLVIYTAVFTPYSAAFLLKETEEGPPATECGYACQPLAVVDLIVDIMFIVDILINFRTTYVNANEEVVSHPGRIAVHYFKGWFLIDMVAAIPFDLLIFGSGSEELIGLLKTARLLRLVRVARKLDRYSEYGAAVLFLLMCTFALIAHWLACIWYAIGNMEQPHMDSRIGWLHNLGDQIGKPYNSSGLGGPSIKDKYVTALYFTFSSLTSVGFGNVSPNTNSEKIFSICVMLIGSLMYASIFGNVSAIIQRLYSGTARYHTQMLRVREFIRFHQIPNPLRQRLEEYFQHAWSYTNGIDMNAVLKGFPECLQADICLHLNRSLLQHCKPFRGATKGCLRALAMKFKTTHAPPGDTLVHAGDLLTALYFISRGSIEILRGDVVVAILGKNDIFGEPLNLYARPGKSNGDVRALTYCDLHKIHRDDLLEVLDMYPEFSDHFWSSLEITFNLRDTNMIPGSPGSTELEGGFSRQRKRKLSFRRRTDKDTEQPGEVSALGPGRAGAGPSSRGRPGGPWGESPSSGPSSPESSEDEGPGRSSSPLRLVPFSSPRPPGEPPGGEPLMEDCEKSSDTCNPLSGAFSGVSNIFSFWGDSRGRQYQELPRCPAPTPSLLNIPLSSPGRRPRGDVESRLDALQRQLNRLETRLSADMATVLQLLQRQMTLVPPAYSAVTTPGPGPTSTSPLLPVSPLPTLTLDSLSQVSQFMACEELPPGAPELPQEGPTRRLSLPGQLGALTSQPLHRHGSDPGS

This experiment addresses human ether-à-go-go-related gene (hERG) potassium channel (human, UniProt Q12809). Briefly: primary screen, population patch clamp on CHO cells stably expressing hERG.
For the compound `COc1cc(-c2noc(C)c2C#Cc2ccsc2)cc(OC)c1OC`, the “hERG current change (%, negative = inhibition) at 10uM” value worked out at 10.8%.
As for `O=C(N/N=C/c1ccc(Cl)cc1Cl)Nc1ccccc1`, the figure is 25%; as for `Cn1c(=O)n(CCc2ccccc2)c(=O)c2c1ncn2Cc1ccccc1`, 0.416%.
For `C=CCOc1c2ccc(C(=O)NCCc3ccc(C)cc3)cc2nn1C`, the “hERG current change (%, negative = inhibition) at 10uM” value is reported as -2.67%.
The result for `O=C1NC(=O)C2(Cc3ccccc3N3CCCC32)C(=O)N1Cc1ccccc1` (stereo not drawn) reads 1.61%; that for `CC(=NC(C)C)C1=C(O)CCC1=O`, 7.34%; that for `O=C(NNC(=O)C1CCC1)c1ccccc1`, 0.231%.
`CCOC(=O)c1oc2cc(OC(C)=O)ccc2c(=O)c1-c1ccc(OC)c(OC)c1`: the “hERG current change (%, negative = inhibition) at 10uM” value is reported as -6.73%.
Turning to `CCCCc1ccc(Nc2nc(N3CCOCC3)nc(N3CCOCC3)n2)cc1.Cl`, the “hERG current change (%, negative = inhibition) at 10uM” value was determined as 12.7%.
As for `CCOC(=O)CNC(=O)CSc1nnc(-c2ccco2)n1N`, the “hERG current change (%, negative = inhibition) at 10uM” value is 15.8%.
As for `CC(C)OC(=O)C1C(=O)CC(C)(O)C(C(=O)OC(C)C)C1c1cccc(O)c1` (stereo not drawn), the figure is -15.7%; as for `COc1cc2ccccc2cc1C(=O)NCCCN1CCOCC1`, -5.9%; as for `OCC1(Cc2cccc(Cl)c2)CCCN(Cc2ccc(F)c(F)c2)C1` (stereo not drawn), -51.2%.
As to `Cc1ccccc1OCCN1C(=O)NC2(CCc3ccccc32)C1=O` (stereo not drawn), the “hERG current change (%, negative = inhibition) at 10uM” value is on record as -20.2%.
As for `CC(=O)c1ccc(NC(=O)c2ccc(COc3ccccc3[N+](=O)[O-])o2)cc1`, the figure is -8.46%.
Consider `CCC12CN3CCN(CC(C3)/C1=N\O)C2`, for which the “hERG current change (%, negative = inhibition) at 10uM” value is listed as -0.612%.
`COc1ccc(/C=C/C(=O)OCc2nc3ccccc3c(=O)[nH]2)c(OC)c1`: the “hERG current change (%, negative = inhibition) at 10uM” value is -7.69%.
In the case of `COc1ccc2c(c1)c(CC(=O)Nc1ccc(C)cc1)c(C)n2C(=O)c1ccc(Cl)cc1`, the “hERG current change (%, negative = inhibition) at 10uM” value is given as -20.4%.
As to `N#C/C(=C\c1c(Cl)cccc1Cl)c1nn(-c2ccccc2)c(-n2cccc2)c1C#N`, the “hERG current change (%, negative = inhibition) at 10uM” value was found to be 9.9%.
As for `CCOc1ccc(NS(=O)(=O)c2ccc3[nH]cc(C(=O)N(CC)CC)c(=O)c3c2)cc1`, the figure is -36.1%; as for `CC(C)(C(=O)N[C@H](CO)c1ccccc1)C(=O)N[C@H](CO)c1ccccc1`, 3.12%; as for `O=S(=O)(c1ccccc1)c1ccc(N2CCCCCC2)cc1`, -3.76%.
The result for `Cc1c(C(=O)NCc2ccccc2)oc2c1C(=O)CCC2` reads -6.1%; that for `CCN(C(=O)COC(=O)c1cnc(C)cn1)c1c(N)n(Cc2ccccc2)c(=O)[nH]c1=O`, 10%; that for `CC1=C(C(=O)NCc2ccccc2)C(c2ccc(C)o2)n2ncnc2N1` (stereo not drawn), -11.2%.
`N#CC1=C(N)Oc2n[nH]c(-c3cccs3)c2C1c1ccncc1` (stereo not drawn): the “hERG current change (%, negative = inhibition) at 10uM” value is -0.917%.
As for `CCN(CC(=O)NCc1ccc(F)cc1)C(=O)c1ccc(COc2ccccc2)cc1`, the “hERG current change (%, negative = inhibition) at 10uM” value is listed as -47.9%.
In the case of `O=S(=O)(Nc1cc(S(=O)(=O)N2CCOCC2)ccc1N1CCCC1)c1cccs1`, the “hERG current change (%, negative = inhibition) at 10uM” value is -4.49%.
As for `CCN(CC)C(=O)CCc1nc2sc3c(c2c(=O)[nH]1)CCCC3`, the figure is -4.13%; as for `N#Cc1ncc(Cc2ccccc2)nc1C#N`, 11.7%.
Turning to `Cn1cc(CN2CCCC(CNS(=O)(=O)c3cccc4cccnc34)C2)cn1` (stereo not drawn), the “hERG current change (%, negative = inhibition) at 10uM” value is listed as 5.77%.
With `COc1ccc(N(C)S(=O)(=O)c2ccc3c(c2)CCN3C(=O)C2CC2)c(OC)c1`, the “hERG current change (%, negative = inhibition) at 10uM” value was -22.4%.
As for `Cc1[nH]c(=O)[nH]c(=O)c1S(=O)(=O)N(CC(C)C)CC(C)C`, the figure is 21%.
Regarding `CCOC(=O)c1ccc(NC(=S)N2CCC(C(N)=O)(N3CCCCC3)CC2)cc1`, the “hERG current change (%, negative = inhibition) at 10uM” value is 2.47%.
The result for `CC1CCc2c(sc(NC(=O)CSc3nnc(-c4ccccc4)o3)c2C#N)C1` (stereo not drawn) reads 6.67%; that for `Cc1ccc(C)c(N2CCN(C(=O)COc3cc(=O)n(C)c4ccccc34)CC2)c1`, -32.3%.
The result for `N#CCc1ccc(NC(=O)c2ccc(S(=O)(=O)N3CCCC3)cc2)cc1` reads 16.9%; that for `CCn1c(=O)cc(OCC(=O)Nc2ccc(C)cn2)c2ccccc21`, -0.844%; that for `CCn1nnc(NC(=O)c2cc(Cl)c(OC)c(Cl)c2)n1`, -8.03%.
The result for `O=C(NCCCN1CCOCC1)c1ccc(CNS(=O)(=O)c2ccc(Br)cc2)cc1` reads -18.9%.
With `C=CCN1C(=O)c2cccc3c(Br)ccc(c23)C1=O`, the “hERG current change (%, negative = inhibition) at 10uM” value turned out to be 7.56%.
As for `CCOC(=O)C1CCCN(C(=O)Cc2c(C(=O)O)[nH]c3ccccc23)C1` (stereo not drawn), the figure is -2.79%; as for `Cc1cc(NCc2ccccc2)nc(-c2ccccc2O)n1`, -1.86%; as for `Cc1ccc(S(=O)c2ccc(C)cc2)cc1`, -2.31%.
The result for `O=C(CSc1nnc(-c2ccncc2)n1Cc1ccco1)Nc1ccccc1F` reads -20.4%.
`CCOc1ccc(NC(=S)N=Nc2c(O)[nH]c3ccccc23)cc1`: the “hERG current change (%, negative = inhibition) at 10uM” value is recorded as -2.95%.
The result for `COc1ccc(C(=O)COC(=O)c2ccc(N(C)C)cc2)cc1` reads -0.557%; that for `O=c1[nH]c(=O)n(Cc2ccc(F)cc2)c(O)c1C=NCCCN1CCOCC1`, -15.9%.
As for `COC(=O)c1cccc(NC(=O)/C=C/c2ccc([N+](=O)[O-])cc2)c1`, the figure is -21.4%; as for `CNC(=O)c1csc(-c2ccc(Cl)cc2)n1`, -4.29%; as for `CCC(C)NC(=O)Nc1ccc(Br)cc1` (stereo not drawn), -8.93%.
The result for `Fc1ccc(-n2cc(-c3ccccc3)[n+]3c2SCC3)cc1.[Br-]` reads -22.7%.
As to `CC1=NNC(=O)C1CC(=O)N/N=C(\C)c1ccco1` (stereo not drawn), the “hERG current change (%, negative = inhibition) at 10uM” value amounted to 18.8%.
In the case of `Cc1occc1C(=O)NNC(=S)Nc1ccccc1`, the “hERG current change (%, negative = inhibition) at 10uM” value is 8.24%.
As for `CCOc1ccccc1CN1CCN(Cc2ccon2)CC1CCO` (stereo not drawn), the figure is -42.6%; as for `CC(=O)Nc1ccc2nc(CN3CCN(CC=C(C)C)C(CCO)C3)ccc2c1` (stereo not drawn), 11.5%; as for `CC(=O)Nc1ccc(S(=O)(=O)Nc2cccc(C(=O)NC(C)(C)C)c2)cc1`, -7.15%.

Values taken from PMC4336329 (PLoS ONE, 2015).
